# Assay results published in the supplement of paper PMC8728848.
# This is one part of the list.
# Tests used:
# Experiment in all cases: glycan array binding signal (z-score within array); higher = stronger binding
# Settings in all cases: glycan notation: IUPAC condensed, linker removed
# [1] = target: Gal(b1-4)GlcNAc(b1-3)Gal(b1-4)GlcNAc(b1-6)[Gal(b1-3)]GalNAc
# Method in brief: (§1)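 The binding signal is a Z-score computed within each array. Data were drawn from 3228 arrays in the Consortium for Functional Glycomics database, restricted to those with a known protein sequence. Scores were averaged over arrays of the same protein sequence at different concentrations or buffers, and over linkers, and negative values can be taken as non-binding.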
# [2] = target: Gal(b1-4)GlcNAc(b1-3)Gal(b1-4)[Fuc(a1-3)GlcNAc(b1-6)]Gal(b1-4)Glc
# Method in brief: as §1
# [3] = target: Gal(b1-4)GlcNAc(b1-3)Gal(b1-4)[Fuc(a1-3)]GlcNAc(b1-3)Gal(b1-4)[Fuc(a1-3)]GlcNAc
# Method in brief: as §1
# [4] = target: Gal(b1-4)GlcNAc(b1-3)GalNAc
# Method in brief: as §1
# [5] = target: Gal(b1-4)GlcNAc(b1-3)[Fuc(a1-3)GlcNAc(b1-6)]Gal(b1-4)Glc
# Method in brief: as §1
# [6] = target: Gal(b1-4)GlcNAc(b1-3)[Gal(b1-4)GlcNAc(b1-6)]Gal(b1-4)GlcNAc
# Method in brief: as §1
# [7] = target: Gal(b1-4)GlcNAc(b1-3)[GlcNAc(b1-6)]Gal(b1-4)GlcNAc
# Method in brief: as §1
# [8] = target: Gal(b1-4)GlcNAc(b1-6)Gal(b1-4)GlcNAc
# Method in brief: as §1
# [9] = target: Gal(b1-4)GlcNAc(b1-6)Gal(b1-4)GlcNAc(b1-6)GalNAc
# Method in brief: as §1
# [10] = target: Gal(b1-4)GlcNAc(b1-6)GalNAc
# Method in brief: as §1
# [11] = target: Gal(b1-4)GlcNAc(b1-6)[Gal(b1-3)]GalNAc
# Method in brief: as §1
# [12] = target: Gal(b1-4)GlcNAc(b1-6)[Gal(b1-4)GlcNAc(b1-3)]GalNAc
# Method in brief: as §1
# Gal(b1-4)GlcNAc6P = target: Gal(b1-4)GlcNAc6P
# Method in brief: as §1
# Gal(b1-6)Gal = target: Gal(b1-6)Gal
# Method in brief: as §1
# Gal3S(b1-3)GalNAc = target: Gal3S(b1-3)GalNAc
# Method in brief: as §1
# Gal3S(b1-3)GlcNAc = target: Gal3S(b1-3)GlcNAc
# Method in brief: as §1
# [13] = target: Gal3S(b1-3)[Fuc(a1-4)]GalNAc
# Method in brief: as §1
# [14] = target: Gal3S(b1-3)[Fuc(a1-4)]GlcNAc
# Method in brief: as §1
# Gal3S(b1-4)Glc = target: Gal3S(b1-4)Glc
# Method in brief: as §1
# Gal3S(b1-4)Glc6S = target: Gal3S(b1-4)Glc6S
# Method in brief: as §1
# Gal3S(b1-4)GlcNAc = target: Gal3S(b1-4)GlcNAc
# Method in brief: as §1
# Gal3S(b1-4)GlcNAc6S = target: Gal3S(b1-4)GlcNAc6S
# Method in brief: as §1
# [15] = target: Gal3S(b1-4)[Fuc(a1-3)]Glc
# Method in brief: as §1
# [16] = target: Gal3S(b1-4)[Fuc(a1-3)]Glc6S
# Method in brief: as §1
# [17] = target: Gal3S(b1-4)[Fuc(a1-3)]GlcNAc
# Method in brief: as §1
# [18] = target: Gal3S(b1-4)[Fuc(a1-3)]GlcNAc6S
# Method in brief: as §1
# Gal3S4S(b1-4)GlcNAc = target: Gal3S4S(b1-4)GlcNAc
# Method in brief: as §1
# Gal3S6S(b1-4)GlcNAc = target: Gal3S6S(b1-4)GlcNAc
# Method in brief: as §1
# Gal3S6S(b1-4)GlcNAc6S = target: Gal3S6S(b1-4)GlcNAc6S
# Method in brief: as §1
# Gal4S(b1-4)GlcNAc = target: Gal4S(b1-4)GlcNAc
# Method in brief: as §1
# Gal4S6S(b1-4)GlcNAc = target: Gal4S6S(b1-4)GlcNAc
# Method in brief: as §1
# Gal6P(b1-4)GlcNAc = target: Gal6P(b1-4)GlcNAc
# Method in brief: as §1
# Gal6S(b1-3)GlcNAc = target: Gal6S(b1-3)GlcNAc
# Method in brief: as §1
# Gal6S(b1-3)GlcNAc6S = target: Gal6S(b1-3)GlcNAc6S
# Method in brief: as §1
# Gal6S(b1-4)Glc = target: Gal6S(b1-4)Glc
# Method in brief: as §1
# Gal6S(b1-4)Glc6S = target: Gal6S(b1-4)Glc6S
# Method in brief: as §1
# Gal6S(b1-4)GlcNAc = target: Gal6S(b1-4)GlcNAc
# Method in brief: as §1
binder,measurement,setting,value
"LSECtin (Homo sapiens), Q6UXB4 (protein) MDTTRYSKWGGSSEEVPGGPWGRWVHWSRRPLFLALAVLVTTVLWAVILSILLSKASTERAALLDGHDLLRTNASKQTAALGALKEEVGDCHSCCSGTQAQLQTTRAELGEAQAKLMEQESALRELRERVTQGLAEAGRGREDVRTELFRALEAVRLQNNSCEPCPTSWLSFEGSCYFFSVPKTTWAAAQDHCADASAHLVIVGGLDEQGFLTRNTRGRGYWLGLRAVRHLGKVQGYQWVDGVSLSFSHWNQGEPNDAWGRENCVMMLHTGLWNDAPCDSEKDGWICEKRHNC",glycan array binding signal (z-score),[1],-0.118
same,glycan array binding signal (z-score),[2],-0.143
same,glycan array binding signal (z-score),[3],-0.184
same,glycan array binding signal (z-score),[4],-0.146
same,glycan array binding signal (z-score),[5],-0.124
same,glycan array binding signal (z-score),[6],-0.186
same,glycan array binding signal (z-score),[7],-0.249
same,glycan array binding signal (z-score),[8],-0.219
same,glycan array binding signal (z-score),[9],0.855
same,glycan array binding signal (z-score),[10],-0.14
same,glycan array binding signal (z-score),[11],-0.126
same,glycan array binding signal (z-score),[12],-0.129
same,glycan array binding signal (z-score),Gal(b1-4)GlcNAc6P,-0.133
same,glycan array binding signal (z-score),Gal(b1-6)Gal,-0.14
same,glycan array binding signal (z-score),Gal3S(b1-3)GalNAc,-0.211
same,glycan array binding signal (z-score),Gal3S(b1-3)GlcNAc,-0.029
same,glycan array binding signal (z-score),[13],-0.13
same,glycan array binding signal (z-score),[14],-0.158
same,glycan array binding signal (z-score),Gal3S(b1-4)Glc,-0.216
same,glycan array binding signal (z-score),Gal3S(b1-4)Glc6S,-0.136
same,glycan array binding signal (z-score),Gal3S(b1-4)GlcNAc,-0.021
same,glycan array binding signal (z-score),Gal3S(b1-4)GlcNAc6S,0.471
same,glycan array binding signal (z-score),[15],-0.173
same,glycan array binding signal (z-score),[16],-0.107
same,glycan array binding signal (z-score),[17],-0.132
same,glycan array binding signal (z-score),[18],-0.133
same,glycan array binding signal (z-score),Gal3S4S(b1-4)GlcNAc,0.482
same,glycan array binding signal (z-score),Gal3S6S(b1-4)GlcNAc,-0.198
same,glycan array binding signal (z-score),Gal3S6S(b1-4)GlcNAc6S,-0.05
same,glycan array binding signal (z-score),Gal4S(b1-4)GlcNAc,-0.143
same,glycan array binding signal (z-score),Gal4S6S(b1-4)GlcNAc,-0.19
same,glycan array binding signal (z-score),Gal6P(b1-4)GlcNAc,-0.12
same,glycan array binding signal (z-score),Gal6S(b1-3)GlcNAc,-0.138
same,glycan array binding signal (z-score),Gal6S(b1-3)GlcNAc6S,-0.136
same,glycan array binding signal (z-score),Gal6S(b1-4)Glc,-0.141
same,glycan array binding signal (z-score),Gal6S(b1-4)Glc6S,-0.207
same,glycan array binding signal (z-score),Gal6S(b1-4)GlcNAc,-0.19
